Laboratory results reported in PubChem BioAssay AID1460 (National Center for Advancing Translational Sciences (NCATS), 2008).
Hit rate of the full screen: of about 270,000 compounds, about 5,800 (2.1%) were called active. This list was built around the results that the source calls inconclusive (neither active nor inactive); the mix of calls is not that of the screen. Calls follow the shape of the dose curve; as a rule, active = well fitted inhibition curve with a large enough effect; inconclusive = small, poorly fitted or top-dose-only effect; inactive = flat fitted curve, though single readings scatter. Potencies of inconclusive entries are doubtful fits and often do not repeat.

target: Microtubule-associated protein tau (Homo sapiens) (UniProt P10636); test: qHTS for Inhibitors of Tau Fibril Formation, Thioflavin T Binding; conditions: recombinant tau K18 P301L (four-repeat tau fragment), heparin-induced fibrillization, ThT fluorescence; series mostly up to 57.4 µM; also: nearly all actives have a fitted effect of over 55% in size
In short: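 In this qHTS, human K18 P301L tau is incubated with compound and heparin for 6 hr at 37 C, and Thioflavin T fluorescence then reports fibril load.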
Potency is read from the fitted curve at half-maximal effect; tags tell the direction and shape of the fitted curve.

UniProt P10636, sequence (P10636 whole entry, looked up, the tested form may be a part): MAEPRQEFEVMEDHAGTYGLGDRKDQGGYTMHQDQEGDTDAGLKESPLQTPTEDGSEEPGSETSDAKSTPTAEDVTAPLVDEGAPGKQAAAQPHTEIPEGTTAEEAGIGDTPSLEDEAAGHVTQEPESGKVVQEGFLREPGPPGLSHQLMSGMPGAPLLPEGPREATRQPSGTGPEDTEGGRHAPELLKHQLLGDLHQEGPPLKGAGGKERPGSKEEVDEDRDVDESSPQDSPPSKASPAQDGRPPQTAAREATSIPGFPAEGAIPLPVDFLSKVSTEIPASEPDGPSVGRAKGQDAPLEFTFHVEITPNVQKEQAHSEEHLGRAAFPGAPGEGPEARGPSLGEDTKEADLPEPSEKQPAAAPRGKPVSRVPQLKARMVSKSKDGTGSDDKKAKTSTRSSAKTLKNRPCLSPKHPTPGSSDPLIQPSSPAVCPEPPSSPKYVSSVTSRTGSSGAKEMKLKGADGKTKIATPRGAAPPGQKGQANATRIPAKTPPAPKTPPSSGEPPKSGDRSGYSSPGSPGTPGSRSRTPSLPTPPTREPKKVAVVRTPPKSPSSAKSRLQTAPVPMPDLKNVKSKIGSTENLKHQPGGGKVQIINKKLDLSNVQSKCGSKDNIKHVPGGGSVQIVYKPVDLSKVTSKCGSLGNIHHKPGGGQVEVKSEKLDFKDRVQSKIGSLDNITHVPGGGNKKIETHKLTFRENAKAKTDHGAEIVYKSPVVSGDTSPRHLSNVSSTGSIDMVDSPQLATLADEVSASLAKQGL

| Structure (SMILES) | Potency |
| --- | --- |
| CC(=O)N1CCc2cc(CNC(=O)Nc3cc(Cl)ccc3C)ccc21 | inactive |
| CCC1=NN(C(=O)C(=O)Nc2ccc(OC)cc2)C(O)(C(F)(F)F)C1 (stereo not given) | inconclusive: 39.8 µM [inhibitor, single point] |
| CCOC(=O)c1[nH]c(C)c(C(=O)NC2CCCC2)c1C | inactive |
| CCOC(=O)N1CCN(c2cc3[nH]c(=S)[nH]c3cc2F)CC1 | inconclusive: 17.8 µM [inhibitor, partial curve] |
| Cc1ccc(S(=O)(=O)NCC(c2ccc(N(C)C)cc2)N2CCc3ccccc32)cc1C (stereo not given) | inconclusive: 3.16 µM [inhibitor, partial curve] |
| COc1ccccc1CNC(=O)CCC1N=C2c3ccccc3N=C(SCC(N)=O)N2C1=O (stereo not given) | inactive |
| Cc1ccccc1OCC(=O)OCC(=O)c1ccc(OC(=O)c2ccccc2)cc1 | inconclusive: 7.94 µM [inhibitor, full curve, poor fit] |
| Fc1ccccc1-n1ncc2c1ncn1nc(-c3ccccc3Cl)nc21 | inconclusive: 1.12 µM [inhibitor, partial curve, poor fit] |
| COC(=O)C1=C(C)NC(=O)/C1=C\c1cc(C)n(-c2ccccc2C)c1C | inconclusive: 15.8 µM [inhibitor, partial curve] |
| O=C(O)CN1C(=O)/C(=C/C=C/c2ccccc2)SC1=S | active: 11.2 µM |
| COc1ccc(/C=N/Nc2nc3ccccc3o2)cc1O | inconclusive: 7.94 µM [inhibitor, partial curve] |
| COc1ccccc1C(=O)CSc1nnc(-c2ccco2)o1 | inconclusive: 35.5 µM [inhibitor, single point] |
| C/C(=C\C(=O)c1ccncc1)Nc1ccccc1O | inconclusive: 17.8 µM [inhibitor, partial curve, poor fit] |
| O=C(O)c1cccnc1C(=O)O | inactive |
| Cc1cc(NC(=O)COc2cccc3cccnc23)no1 | inconclusive: 28.2 µM [inhibitor, partial curve] |
| CC(=O)n1c2ccccc2c2nc(NC(C)C)sc21 | active: 22.4 µM |
| CC(=O)c1cc(NC(=O)c2ccc(C)cc2)c(=O)oc1C | active: 31.6 µM |
| Cc1ccc(S(=O)(=O)/N=S(/c2ccccc2)C(C)C)cc1 (stereo not given) | inconclusive: 39.8 µM [inhibitor, single point] |
| Cc1ccc(-n2ncc(C(=O)NCCN3CCOCC3)c2C2CCN(C(=O)OC(C)(C)C)CC2)c(C)c1 | inconclusive: 4.47 µM [activator, partial curve, poor fit] |
| COc1ccc(C2N(c3ccc(Cl)cc3)N=C(C(C)=O)N(C)N2C(C)=O)cc1 (stereo not given) | inconclusive: 17.8 µM [inhibitor, partial curve, poor fit] |
